The campaign covered roughly 410,000 compounds. About 6,400 (1.6%) were called active. The inconclusive results got no clear call from the source; some entries with a clear call stand among them for comparison. The call rests on the fitted dose curve; in most records, active means well fitted inhibition curve with a large enough effect; inconclusive means small, poorly fitted or top-dose-only effect; inactive means no such curve, though single readings can be large or run the other way. A potency beside an inconclusive call is a rough fit, not a confirmed value.
Molecular target: Glucagon-like peptide 1 receptor (Homo sapiens) (UniProt P43220)
Experiment: qHTS of GLP-1 Receptor Inverse Agonists (Inhibition Mode); further: nearly all actives have a fitted effect of over 55% in size
Settings: HEK293 GLP-1R CRE-luciferase, luminescence, 24 h, GLP-1R form is constitutively active; activity change, negative = inhibition: at 38.3 µM (top of the series) unless noted
Outline: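 Seeding at 200 cells/uL, 12 h culture, 24 hr compound treatment, then luciferase reagent and a luminescence read; cells are HEK293 stably expressing a constitutively active GLP-1R plus cAMP-responsive luciferase.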
On the % scale 0 is the no-effect control and ±100 the full control effect; potency means the concentration at half of the fitted maximal effect; tags describe the fitted curve by direction and shape.

Sequence of UniProt P43220 (P43220 whole entry, looked up): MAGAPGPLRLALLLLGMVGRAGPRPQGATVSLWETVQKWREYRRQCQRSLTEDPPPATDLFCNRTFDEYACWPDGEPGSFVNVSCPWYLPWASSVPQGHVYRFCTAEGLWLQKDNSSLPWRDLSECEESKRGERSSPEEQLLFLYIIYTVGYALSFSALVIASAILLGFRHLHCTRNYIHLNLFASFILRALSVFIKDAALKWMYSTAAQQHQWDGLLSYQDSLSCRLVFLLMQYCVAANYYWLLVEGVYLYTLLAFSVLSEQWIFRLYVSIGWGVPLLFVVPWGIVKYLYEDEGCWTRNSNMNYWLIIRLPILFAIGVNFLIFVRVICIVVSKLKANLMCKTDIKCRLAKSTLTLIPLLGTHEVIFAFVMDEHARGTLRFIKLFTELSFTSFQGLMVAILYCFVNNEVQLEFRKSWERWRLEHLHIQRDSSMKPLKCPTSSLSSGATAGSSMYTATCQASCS

Q: For `C=CCNC(=O)c1onc(CSc2cc(C)ccc2C)c1C(=O)O`, which Potency is on record?
A: inconclusive: 8.91 µM [inhibitor, partial curve]

Q: `Cc1cc(C)c(C(=O)c2cccs2)c(C)c1` was tested. Which Potency did it give?
A: inconclusive: 28.2 µM [inhibitor, single point]

Q: Which “activity change, negative = inhibition” value does the source give for `Cc1ccc(C(=O)c2cc3ccccc3o2)cc1[N+](=O)[O-]` here?
A: inactive: 3.5%

Q: For `O=C(NCc1ccccc1)c1cccc(COc2ccccc2Cl)c1`, which Potency is on record?
A: inconclusive: 10 µM [inhibitor, partial curve, poor fit]

Q: How did the Potency turn out when `c1ccc(-c2nnc(-c3ccccn3)nn2)nc1` was run?
A: inconclusive: 35.5 µM [inhibitor, partial curve, poor fit]

Q: Which Potency does the source give for `O=C(Nc1ccn(CCCNCc2cccc3ccccc23)c(=O)n1)OCc1ccccc1` here?
A: inconclusive: 10 µM [inhibitor, single point]

Q: For `CCn1cc2nc(SCC(=O)Nc3ccc(C)cc3)n(Cc3ccc(C)cc3)c(=O)c2n1`, which Potency is on record?
A: inconclusive: 28.2 µM [inhibitor, single point]

Q: With `CCc1ccccc1NC(=O)CNC(=O)c1cc(C2CC2)nn1-c1ccccc1` as the compound, how does the Potency read?
A: inconclusive: 28.2 µM [inhibitor, single point]

Q: `CCC(C)(C)NC(=O)C(c1ccc(OC)cc1)N(Cc1cccs1)C(=O)CCC(=O)Nc1cc(C)on1` (stereo not drawn) was tested. Which Potency did it give?
A: inconclusive: 10 µM [inhibitor, single point]

Q: How did the Potency turn out when `Cc1cc(C)cc(-n2cnc3cc(C(=O)NC4CCCCCC4)ccc32)c1` was run?
A: inconclusive: 11.2 µM [inhibitor, partial curve]

Q: For `Cn1cccc1Cc1nnc(SCC(=O)NC2CCCCC2)n1-c1ccc(F)cc1`, which Potency is on record?
A: inconclusive: 28.2 µM [inhibitor, single point]

Q: How did the Potency turn out when `O=C(NCCOc1ccccc1)c1ccc2c(c1)OCO2` was run?
A: inconclusive: 2 µM [inhibitor, partial curve, poor fit]

Q: With `CCC(C(=O)Nc1cccc(S(=O)(=O)N(C)c2ccccc2)c1)c1ccccc1` (stereo not drawn) as the compound, how does the Potency read?
A: active: 7.08 µM

Q: For `Cn1cc(CN(CCCN2CCOCC2)C(=S)Nc2cccc(Cl)c2)c2ccccc21`, which Potency is on record?
A: inconclusive: 3.98 µM [inhibitor, single point]

Q: `Nc1nc2c(s1)CCc1c-2cnn1-c1ccccc1` was tested. Which “activity change, negative = inhibition” value did it give?
A: inactive: 81.4%

Q: Which Potency does the source give for `COc1ccc(C)cc1S(=O)(=O)N1CCN(C(=O)c2ncoc2-c2cccc(F)c2)CC1` here?
A: inconclusive: 10 µM [inhibitor, single point]

Q: With `CCc1sc(C(=O)N2CCCN(C)CC2)cc1Br` as the compound, how does the Potency read?
A: inconclusive: 11.2 µM [inhibitor, partial curve, poor fit]

Q: With `O=[N+]([O-])c1ccc(NNC(=S)Nc2ccccc2)cc1` as the compound, how does the Potency read?
A: inconclusive: 7.08 µM [inhibitor, partial curve, poor fit]

Q: For `CCC(c1nnc(SCC(=O)Nc2nnc(-c3ccccc3)o2)n1Cc1ccccc1)N(C)C` (stereo not drawn), which “activity change, negative = inhibition” value is on record?
A: inactive: -6.97%

Q: Which “activity change, negative = inhibition” value does the source give for `CN(C)S(=O)(=O)c1ccc(NC(=O)c2ccc(Br)o2)cc1` here?
A: inactive: 0.0719%

Q: With `COc1ccccc1CNC(=S)Nc1ccc(F)cc1` as the compound, how does the Potency read?
A: inconclusive: 15.8 µM [inhibitor, single point]

Q: With `COc1ccccc1NC(=O)c1nn(C)c(C(=O)Nc2ccccc2OC)c1[N+](=O)[O-]` as the compound, how does the activity change, negative = inhibition read?
A: inconclusive: -36.1% [inhibitor]

Q: How did the “activity change, negative = inhibition” value turn out when `O=S(=O)(NCc1ccncc1)c1ccc(F)c(F)c1` was run?
A: inactive: -7.29%

Q: `O=[N+]([O-])c1ccc(SNc2ccccc2)c([N+](=O)[O-])c1` was tested. Which Potency did it give?
A: active: 11.2 µM

Q: With `CCCN(CC(=O)Nc1ccccc1C)C(=O)COc1ccc2c(c1)CCC2` as the compound, how does the Potency read?
A: inconclusive: 11.2 µM [inhibitor, partial curve, poor fit]

Q: Which Potency does the source give for `CCCC1=Nc2cc(C(=O)NCc3ccco3)ccc2Sc2ccccc21` here?
A: inconclusive: 2.24 µM [inhibitor, partial curve, poor fit]

Q: How did the Potency turn out when `CCOC(=O)C1(CC2CC2)CCN(Cc2ccc3cccc(F)c3n2)CC1` was run?
A: inconclusive: 12.6 µM [inhibitor, single point]

Q: For `Fc1cc(F)cc(NC(=S)N2CCN(c3ncccn3)CC2)c1`, which Potency is on record?
A: inconclusive: 8.91 µM [inhibitor, partial curve, poor fit]

Q: Which Potency does the source give for `CC(=O)C1=C(c2ccccc2)N(C(C)=O)n2c(nnc2C2CCCCC2)S1` here?
A: active: 12.6 µM

Q: How did the Potency turn out when `Cc1ccccc1NCC(=O)Nc1cc(S(=O)(=O)N2CCCCC2)ccc1C` was run?
A: inconclusive: 12.6 µM [inhibitor, partial curve, poor fit]

Q: `O=C(NCCN1CCN(c2cccc(Cl)c2)CC1)c1ccc(CSc2nc3ccncc3[nH]2)cc1` was tested. Which Potency did it give?
A: inconclusive: 10 µM [inhibitor, partial curve, poor fit]

Q: How did the activity change, negative = inhibition turn out when `Cn1c(SCCC#N)nnc1-c1ccccc1F` was run?
A: inconclusive: -30.1% [inhibitor] [at 0.307 µM]

Q: `Cc1scc(C(=O)NNC(=S)NC(C)c2ccccc2)c1C` (stereo not drawn) was tested. Which Potency did it give?
A: inconclusive: 2.82 µM [inhibitor, full curve]

Q: `Cc1ccc(C)c(-n2cc(CNCCCn3cccn3)c(-c3ccccc3)n2)c1` was tested. Which Potency did it give?
A: active: 11.2 µM

Q: With `C=CCN(Cc1nc(-c2ccc(OC)c(OC)c2)oc1C)C1CCS(=O)(=O)C1` (stereo not drawn) as the compound, how does the “activity change, negative = inhibition” value read?
A: inactive: 17.7%

Q: How did the Potency turn out when `Cc1ccccc1Nc1nn2c(=O)c3ccc(C(=O)NCc4ccccc4)cc3nc2s1` was run?
A: inconclusive: 0.316 µM [inhibitor, full curve, poor fit]

Q: Which Potency does the source give for `Cc1cc(OCc2cc(C(=O)NCCN3CCCCC3CO)no2)cc(C)c1Cl` (stereo not drawn) here?
A: inconclusive: 6.31 µM [inhibitor, partial curve, poor fit]

Q: How did the Potency turn out when `CC(NC(=S)Nc1ccccc1OC(F)F)C(C)(C)C` (stereo not drawn) was run?
A: inconclusive: 11.2 µM [inhibitor, single point]

Q: `COC(=O)c1ccc(NC(=O)Nc2ccc(F)c(Cl)c2)cc1` was tested. Which Potency did it give?
A: inconclusive: 22.4 µM [inhibitor, single point]

Q: For `CCCNC(=O)Nc1ccc(C(F)(F)F)cc1`, which Potency is on record?
A: inconclusive: 28.2 µM [inhibitor, single point]

Q: How did the Potency turn out when `OCC1(Cc2ccccc2)CCCN(Cc2c[nH]c3ccccc23)C1` (stereo not drawn) was run?
A: inconclusive: 0.891 µM [inhibitor, full curve, poor fit]

Q: For `COC(=O)C(Cc1ccccc1)NC(=O)COc1ccc(C(C)(C)C)cc1` (stereo not drawn), which Potency is on record?
A: inconclusive: 12.6 µM [inhibitor, partial curve, poor fit]

Q: How did the Potency turn out when `CSC1=NC(C)(C)C=C(/C=C/c2ccc(Cl)cc2)N1` was run?
A: inconclusive: 28.2 µM [inhibitor, single point]

Q: Which “activity change, negative = inhibition” value does the source give for `N#C/C(=C/c1ccncc1)c1nc2ccccc2c(=O)[nH]1` here?
A: inactive: 38.3%

Q: `CC(C)(C)C(c1nc2ccccc2[nH]1)n1c(-c2cccc(S(C)(=O)=O)c2)nc2ccccc21` (stereo not drawn) was tested. Which Potency did it give?
A: inconclusive: 3.98 µM [inhibitor, partial curve]

Q: `CCOc1cc(OCC)cc(C(=O)Nc2cccc(-c3nc4ccccc4[nH]3)c2)c1` was tested. Which Potency did it give?
A: inconclusive: 12.6 µM [inhibitor, single point]

Q: For `CCSc1nnc(NC(=O)C2CC(=O)N(Cc3ccccc3)C2)s1` (stereo not drawn), which Potency is on record?
A: inconclusive: 8.91 µM [inhibitor, partial curve]

Q: How did the “activity change, negative = inhibition” value turn out when `Cc1ccc(-c2onc(C)c2C)cc1S(=O)(=O)NCc1ccc(N(C)C)cc1` was run?
A: inactive: -24.3%

Q: `Cc1ccc(-n2c(C)cc(/C=N/NC(=O)Cn3c4ccccc4c(=O)c4ccccc43)c2C)cc1` was tested. Which Potency did it give?
A: inconclusive: 28.2 µM [inhibitor, single point]

Q: How did the “activity change, negative = inhibition” value turn out when `Cc1csc2nc3ccccc3c(=O)n12` was run?
A: inactive: 58.4%

Q: How did the Potency turn out when `Cc1cc(C)cc(N(CCC#N)C(=O)COC(=O)C2CCN(S(=O)(=O)c3ccc(C)c(C)c3)CC2)c1` was run?
A: inconclusive: 7.08 µM [inhibitor, partial curve]

Q: Which “activity change, negative = inhibition” value does the source give for `Cc1ccc(NC(=O)COC(=O)/C=C/c2ccc(Br)o2)cc1S(=O)(=O)N(C)C` here?
A: inactive: -24%

Q: With `COC(=O)c1cccc2c1NC(=O)C2=O` as the compound, how does the “activity change, negative = inhibition” value read?
A: inactive: 23.4%

Q: `C/C(=N\NC(=O)c1nn(C)c(C)c1Br)c1ccc(NC(=O)c2ccoc2C)cc1` was tested. Which “activity change, negative = inhibition” value did it give?
A: inactive: 25.1%

Q: Which Potency does the source give for `Cc1ccccc1CN(C)C(=O)COC(=O)c1ccc2[nH]c(C)c(C)c2c1` here?
A: active: 8.91 µM

Q: Which Potency does the source give for `CCc1nc2c(cnn2-c2ccc(C)cc2)c(=O)n1Cc1ccccc1` here?
A: inconclusive: 12.6 µM [inhibitor, single point]

Q: With `O=C(NC(=S)Nc1nc(-c2ccc(Cl)cc2)cs1)c1cccs1` as the compound, how does the “activity change, negative = inhibition” value read?
A: inactive: 10.6%

Q: `CC1c2[nH]c3ccccc3c2C[C@H]2C(=O)N(CCCN(C)C)CC(=O)N12` (stereo partly drawn) was tested. Which Potency did it give?
A: inconclusive: 10 µM [inhibitor, single point]

Q: For `CCCNC(=O)c1ccc(N2CCC3(CC2)CC(c2ccc(Cl)cc2)=NO3)c([N+](=O)[O-])c1`, which Potency is on record?
A: inconclusive: 28.2 µM [inhibitor, partial curve, poor fit]

Q: How did the Potency turn out when `CC1(C)Cc2ccccc2C(c2cc3ccccc3oc2=O)=N1` was run?
A: inconclusive: 6.31 µM [inhibitor, partial curve, poor fit]

Q: For `COc1cn(-c2ccccc2)nc1C(=O)Nc1ccc(C)cc1Cl`, which Potency is on record?
A: inconclusive: 8.91 µM [inhibitor, partial curve]

Q: With `c1ccc(Nc2cccc(Nc3ccccc3)n2)cc1` as the compound, how does the Potency read?
A: inconclusive: 12.6 µM [inhibitor, partial curve, poor fit]

Q: How did the “activity change, negative = inhibition” value turn out when `CCc1ccc2[nH]cc(C(=O)OCCOC)c(=O)c2c1` was run?
A: inactive: 12.5%

Q: Which Potency does the source give for `Cc1cc(C)c(C)c(OCCCCN(C)Cc2ccccc2)c1` here?
A: inconclusive: 10 µM [inhibitor, partial curve, poor fit]

Q: How did the “activity change, negative = inhibition” value turn out when `Fc1ccccc1N1CC(c2ccccc2)C(c2cccs2)=N1` (stereo not drawn) was run?
A: inactive: 0%

Q: With `CCc1nnc(NC2=NCCC2)s1` as the compound, how does the “activity change, negative = inhibition” value read?
A: inactive: -3.83%

Q: With `COc1ccc2c(c1)CCc1sc(NC(=O)c3cccc(Br)c3)nc1-2` as the compound, how does the Potency read?
A: inconclusive: 28.2 µM [inhibitor, single point]

Q: How did the Potency turn out when `O=C(Nc1cccc(S(=O)(=O)Nc2ccc(Cl)cc2)c1)c1ccc2c(c1)OCCO2` was run?
A: inconclusive: 3.55 µM [inhibitor, partial curve, poor fit]

Source: PubChem BioAssay AID624417 (National Center for Advancing Translational Sciences (NCATS), 2012)
